Values marked as one replicate rest on one cluster of the flow cell; about a third of the high ones do not repeat.
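Further: ATP exposure 15 min at 22 °C before imaging.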

The test system of this data set is ATP. In words: switch fluorescence ratio, 500 uM ATP over buffer (Cy3 cluster intensity, sum of 5 cycles each) (fold (ratio)); higher = stronger signal-on switching upon ATP binding; sequences stand for … in TCGTCGGCAGCGTCAGATGTGTATAAGAGACAGTTTTTTTTTTTTTTTTTTTTTTTTT…TC. The note with it: aptamer strand: ATP DNA aptamer (quencher-CACCTGGGGGAGTATTGCGGAGGAAGG + anchor), 100 nM annealed; ATP concentration: 500 uM; one replicate. The method in brief:
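Cy3-labelled switching-strand clusters on a modified Illumina MiSeq flow-cell were annealed to 100 nM quencher-labelled ATP aptamer, imaged in selection buffer, then imaged after 15 min with 500 uM ATP at 22 °C. Five buffer/ATP cycles ran, with NaOH stripping and re-annealing between them. The fluorescence ratio is summed target-cycle over summed buffer-cycle Cy3 intensity per cluster, averaged per switch-domain sequence. Clusters outside 100-1000 RFU were excluded.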
Turning to CGGTTAGAGT, the switch fluorescence ratio came out at 1.02.

Take GGTGCATAAG: the switch fluorescence ratio stood at 1.14.

On to GGATCCAAGG, for which the switch fluorescence ratio is 0.994.

Take TAATTCCGTC: the switch fluorescence ratio was determined as 1.06.

Take GATAGTACAA: the switch fluorescence ratio amounted to 1.02.

With TCGTGTAATT, the switch fluorescence ratio is 0.954.

For the sequence TTTTACGGG, the switch fluorescence ratio was 1.01.

As for AAGCGCAAGT, the switch fluorescence ratio was found to be 1.04.

As to AATTACTATT, the switch fluorescence ratio was 1.03.

As for GGCACGCGGC, the switch fluorescence ratio was 1.04.

In the case of CACTCTGCAG, the switch fluorescence ratio was 3.19.

For GTTAGGGCCA, the switch fluorescence ratio came out at 1.01.

With AGTATTATCC, the switch fluorescence ratio was found to be 1.

On to ACATCTTGTT, for which the switch fluorescence ratio came out at 1.

TAGCCATATA: the switch fluorescence ratio stood at 1.06.

For TCGTGTGGTA, the switch fluorescence ratio worked out at 0.967.

For the sequence GGCCTTATAT, the switch fluorescence ratio came out at 0.983.

In the case of AATCGCCCCT, the switch fluorescence ratio stood at 1.07.

As for TCTGAGGAAG, the switch fluorescence ratio was determined as 1.01.

Take GGTTGAGCAG: the switch fluorescence ratio worked out at 0.963.

In the case of AATAAGTCCG, the switch fluorescence ratio is 0.997.

For ACGGTGCCTG, the switch fluorescence ratio came to 1.01.

Turning to CCTTTCGTCT, the switch fluorescence ratio was 1.04.

For ATAGTGGCAG, the switch fluorescence ratio worked out at 1.01.

Take TGTCTTTGAA: the switch fluorescence ratio worked out at 0.965.

For GACGTGTAGC, the switch fluorescence ratio was found to be 1.08.

As to CGGCAACGGA, the switch fluorescence ratio stood at 0.991.

Consider TTGTTACACT, for which the switch fluorescence ratio turned out to be 1.03.

CTCCTGAAGC: the switch fluorescence ratio worked out at 1.37.

On to TGTCTGACAG, for which the switch fluorescence ratio came out at 1.04.

As for AACATAGAA, the switch fluorescence ratio worked out at 1.01.

GCCGATCATT: the switch fluorescence ratio worked out at 1.

For the sequence AGAGGAGTCG, the switch fluorescence ratio stood at 0.994.

Regarding GGCGTTCAAG, the switch fluorescence ratio turned out to be 0.984.

Turning to CGATCCACAT, the switch fluorescence ratio was 1.04.

On to CTGTCGGGCC, for which the switch fluorescence ratio was determined as 1.03.

For the sequence CTAGTAAGCC, the switch fluorescence ratio was 1.

In the case of CTTGGTCT, the switch fluorescence ratio came out at 1.

GGGTCAAGCT: the switch fluorescence ratio worked out at 1.06.

As to CACGGACCGG, the switch fluorescence ratio was determined as 0.956.

Consider AATAGACTTC, for which the switch fluorescence ratio came out at 0.973.

With TTCGAGAGT, the switch fluorescence ratio came out at 1.03.

Take AATGGGAACT: the switch fluorescence ratio stood at 0.971.

Turning to GACTCTTCAA, the switch fluorescence ratio is 1.08.

Regarding CCAATTCGG, the switch fluorescence ratio came to 0.945.

Turning to GCATATGCAG, the switch fluorescence ratio was 1.

GTGCTCAGA: the switch fluorescence ratio came to 0.971.

As to GGAGGTGACG, the switch fluorescence ratio was 0.945.

Consider AGTATCTTGC, for which the switch fluorescence ratio was 0.959.

Turning to CATTTCATAA, the switch fluorescence ratio was 1.

Consider TGCGGCTGTT, for which the switch fluorescence ratio was determined as 0.993.

In the case of AGCGTCGAGA, the switch fluorescence ratio stood at 0.962.

As to TGGCGTCCGC, the switch fluorescence ratio amounted to 0.956.

Turning to GCCCGATTTA, the switch fluorescence ratio was found to be 1.39.

As to GTGGTTGGAT, the switch fluorescence ratio amounted to 1.

Regarding GGTTCTCTGG, the switch fluorescence ratio was determined as 0.98.

Turning to TTGAGAGGTG, the switch fluorescence ratio was 1.1.

For the sequence AAGGTCGGCA, the switch fluorescence ratio came to 1.

As to ATGCAGCGTT, the switch fluorescence ratio worked out at 0.942.

For GAATTTGTCA, the switch fluorescence ratio was determined as 0.958.

AAGTAATTCA: the switch fluorescence ratio worked out at 1.04.

As to TATAGGAGGA, the switch fluorescence ratio was 1.01.

In the case of GACCTGATGT, the switch fluorescence ratio was determined as 1.02.

Consider TCCACTTTA, for which the switch fluorescence ratio is 1.05.

On to CAATCATCTC, for which the switch fluorescence ratio worked out at 0.976.

As for CCCTTGATCA, the switch fluorescence ratio turned out to be 1.01.

Take GCTAGGGGGC: the switch fluorescence ratio amounted to 0.98.

For TCCACGGCAT, the switch fluorescence ratio turned out to be 2.51.

Turning to GCTGGATTG, the switch fluorescence ratio was 0.983.

As for CTCCTCGTAC, the switch fluorescence ratio is 3.15.

In the case of ACGTGTTTTT, the switch fluorescence ratio stood at 1.01.

On to GGAAACGCCG, for which the switch fluorescence ratio was determined as 1.01.

For TACACTAAGC, the switch fluorescence ratio was determined as 1.1.

As to TAGGTGACG, the switch fluorescence ratio worked out at 1.05.

As for TCTTTGGAGT, the switch fluorescence ratio is 0.979.

Regarding TTTGTCATTA, the switch fluorescence ratio was found to be 1.02.

Consider GAGGTAATAA, for which the switch fluorescence ratio was found to be 1.64.

In the case of CGCACGGGTT, the switch fluorescence ratio is 0.954.

As to ATGGGTGCCG, the switch fluorescence ratio amounted to 1.03.

Turning to TAGGAGTTTA, the switch fluorescence ratio is 0.987.

Take GCGCAAACTA: the switch fluorescence ratio came to 1.04.

Turning to TTCGTTCACT, the switch fluorescence ratio worked out at 0.992.

For the sequence ACTTATTACG, the switch fluorescence ratio is 1.06.

Regarding TCAACGTGTT, the switch fluorescence ratio turned out to be 0.968.

Take GAATATTTCA: the switch fluorescence ratio is 1.01.

CAAGTAACAC: the switch fluorescence ratio came out at 1.09.

GGTTGCAG: the switch fluorescence ratio is 0.993.

In the case of AACGCGCGTT, the switch fluorescence ratio was 0.955.

On to TCGTGTGTAG, for which the switch fluorescence ratio came to 1.02.

As for AAGGTGGCCG, the switch fluorescence ratio amounted to 0.952.

Regarding CGTCATGGAA, the switch fluorescence ratio came out at 1.04.

Regarding CAACACTGTT, the switch fluorescence ratio was found to be 0.962.

In the case of TTGCCCGAAT, the switch fluorescence ratio was 1.02.

GAACTTATTA: the switch fluorescence ratio was 1.01.

With ATGTTCTGTA, the switch fluorescence ratio came to 1.

Take GAGTACTTCA: the switch fluorescence ratio was 1.02.

Turning to AGCTGCGGTC, the switch fluorescence ratio was 1.02.

For the sequence TCGCGGTCCG, the switch fluorescence ratio stood at 1.02.

TGCTTCAAAC: the switch fluorescence ratio came to 2.47.

With ATTCGGGCTC, the switch fluorescence ratio came to 0.994.

As to GTATGAGGTC, the switch fluorescence ratio came to 0.943.

For the sequence GCGACATTCT, the switch fluorescence ratio came out at 1.

Take CGAAGCCTGT: the switch fluorescence ratio was 1.18.

With CGGATGCAGG, the switch fluorescence ratio stood at 0.966.

On to TTTGACTTAT, for which the switch fluorescence ratio was 1.05.

Consider AACCCGAAGG, for which the switch fluorescence ratio was found to be 0.995.

Consider ACAGCGTCGA, for which the switch fluorescence ratio stood at 1.05.

CAGAACAACC: the switch fluorescence ratio stood at 1.05.

Regarding CTCGAATGTT, the switch fluorescence ratio was 1.04.

As to ACGGTGGTTA, the switch fluorescence ratio was 0.976.

Take GCTTAGTGG: the switch fluorescence ratio was 0.964.

Consider TGCAAATGAA, for which the switch fluorescence ratio came out at 1.05.

TTGTGTTGTT: the switch fluorescence ratio amounted to 1.02.

In the case of ACTAGCTAAC, the switch fluorescence ratio turned out to be 1.3.

Turning to CCAATTGAGA, the switch fluorescence ratio worked out at 0.979.

With GTGACCCAAG, the switch fluorescence ratio turned out to be 1.

AGCCCGGAC: the switch fluorescence ratio was determined as 1.09.

AATTAGACTC: the switch fluorescence ratio was found to be 1.01.

Consider TACAATATTC, for which the switch fluorescence ratio turned out to be 1.04.

On to CTATCCGGC, for which the switch fluorescence ratio came to 1.01.

Values taken from the supplement of paper PMC10126150.
